# From PMC4336329 (PLoS ONE, 2015)
# The campaign covered roughly 310,000 compounds. About 2,200 (0.71%) showed an effect of 50% or more. Effects have a minus sign here. The list shows a part of the results.
# Target: human ether-à-go-go-related gene (hERG) potassium channel (human, UniProt Q12809)
# Experiment: primary screen, population patch clamp on CHO cells stably expressing hERG
# Sequence of human ether-à-go-go-related gene (hERG) potassium channel (Q12809 whole entry, looked up): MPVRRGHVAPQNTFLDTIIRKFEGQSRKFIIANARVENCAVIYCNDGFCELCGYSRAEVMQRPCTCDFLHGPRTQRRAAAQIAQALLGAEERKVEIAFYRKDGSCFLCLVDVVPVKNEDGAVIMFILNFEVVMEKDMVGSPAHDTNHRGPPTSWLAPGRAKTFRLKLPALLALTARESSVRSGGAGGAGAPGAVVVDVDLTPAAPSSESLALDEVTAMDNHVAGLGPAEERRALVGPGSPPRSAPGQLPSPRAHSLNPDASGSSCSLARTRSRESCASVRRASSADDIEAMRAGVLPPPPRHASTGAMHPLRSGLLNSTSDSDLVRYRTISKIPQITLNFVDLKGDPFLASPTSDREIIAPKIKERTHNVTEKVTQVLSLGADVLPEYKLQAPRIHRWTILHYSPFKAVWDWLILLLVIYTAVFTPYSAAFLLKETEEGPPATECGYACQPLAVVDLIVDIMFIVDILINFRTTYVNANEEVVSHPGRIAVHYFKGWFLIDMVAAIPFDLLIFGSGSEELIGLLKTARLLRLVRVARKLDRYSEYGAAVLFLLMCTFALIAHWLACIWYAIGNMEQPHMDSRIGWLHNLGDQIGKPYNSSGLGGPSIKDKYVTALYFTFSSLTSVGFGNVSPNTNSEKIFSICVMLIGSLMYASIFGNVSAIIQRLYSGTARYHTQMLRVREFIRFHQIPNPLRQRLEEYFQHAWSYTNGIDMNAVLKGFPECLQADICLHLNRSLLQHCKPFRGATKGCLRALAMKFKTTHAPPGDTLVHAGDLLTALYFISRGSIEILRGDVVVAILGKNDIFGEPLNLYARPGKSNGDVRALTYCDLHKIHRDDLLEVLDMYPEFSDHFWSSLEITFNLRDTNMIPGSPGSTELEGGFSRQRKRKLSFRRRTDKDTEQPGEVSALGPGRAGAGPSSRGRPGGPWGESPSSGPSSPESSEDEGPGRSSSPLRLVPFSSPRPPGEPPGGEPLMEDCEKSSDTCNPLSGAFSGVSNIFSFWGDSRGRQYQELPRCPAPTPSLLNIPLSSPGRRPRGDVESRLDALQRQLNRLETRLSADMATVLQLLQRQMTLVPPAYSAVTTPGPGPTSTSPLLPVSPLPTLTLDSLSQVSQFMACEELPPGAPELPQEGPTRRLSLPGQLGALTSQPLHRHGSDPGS
row,Structure (SMILES),"hERG current change (%, negative = inhibition) at 1uM [%]"
1,O=C(NCCCCNC(=O)c1ccco1)c1ccco1,17.4
2,CCOc1ccc(N2C(=O)CC(N(CCc3ccccc3)C(=O)/C=C/C(=O)O)C2=O)cc1 (stereo not shown),14.7
3,CCCOC1CCCN(Cc2nc(-c3cnccn3)no2)C1 (stereo not shown),11.6
4,O=C(Cn1ccn(-c2ccc(F)c(Cl)c2)c(=O)c1=O)NCCc1ccccc1,10.7
5,COC(=O)N/N=C/c1c(C)nn(-c2cccc(Cl)c2)c1Cl,3.99
6,Cc1ccc(/C=C/C(=O)c2cc(Br)ccc2OC(=O)c2ccco2)cc1,10.1
7,Cc1onc(-c2c(F)cccc2Cl)c1C(=O)Nc1nc2c(s1)CCCC2,-4.32
8,CN(C)C1(CNC(=O)c2cc(S(=O)(=O)N3CCOCC3)c(Cl)cc2Cl)CCCCC1,3.52
9,CCc1ccc(N/C(N)=N/c2nc(CSc3ccccn3)cc(=O)[nH]2)cc1,4.02
10,O=C(COc1ccc2ccc(=O)oc2c1)Nc1ccc(CCO)cc1,9
11,Cc1ccc(C(=O)NNC2=NCCC2)cc1,3.85
12,COc1cc(C)nc(NC(=S)N(C)C(=O)c2ccccc2)n1,3.27
13,COCc1nnc(SCC(=O)Nc2cccc(Cl)c2C)n1-c1ccccc1,-11
14,COc1ccc(-c2nc(CN3CCC(C(=O)NCC4CCCO4)CC3)c(C)o2)cc1OC (stereo not shown),13.5
15,O=C(NCCS(=O)(=O)N1CCN(c2ccccc2)CC1)c1cccs1,8.28
16,COc1ccc(-c2cc(=O)c3c(O)cc(OC4OC(COC5OC(C)C(O)C(O)C5O)C(O)C(O)C4O)cc3o2)cc1O (stereo not shown),10.9
17,CNS(=O)(=O)c1ccc(C)cc1,6.32
18,COc1cc(NS(=O)(=O)c2ccc(NC(=O)c3cccs3)cc2)nc(OC)n1,13.9
19,COc1cc(O)c(C(CC(=O)N2CCN(c3ccccc3)CC2)c2ccc(N(C)C)cc2)c(OC)c1 (stereo not shown),16.2
20,O=C(O)c1ccccc1N=Nc1c(O)[nH]c2ccc([N+](=O)[O-])cc12,5.1
21,CCOc1ccc(NC(=S)NC(=O)c2cncc(Br)c2)cc1,12.7
22,CCOC(=O)N1CCN(C(=O)CSc2ccc(-c3cccc(OC)c3)nn2)CC1,-4.47

row,Structure (SMILES),"hERG current change (%, negative = inhibition) at 1uM [%]"
1,OC(COc1ccc2cc(Br)ccc2c1)CN1CCOCC1 (stereo not shown),-2.4
2,NC(=O)c1c(NC(=O)CSc2nnc(Cc3ccccc3)n2Cc2ccco2)sc2c1CCC2,9.05
3,CCOc1ccc(S(=O)(=O)N(CC)CC)cc1NC(=O)CSCc1c(C)noc1C,-17.7
4,O=C(Nc1ccc2nc(-c3cccnc3)[nH]c2c1)c1ccco1,12.7
5,Cn1cc(S(=O)(=O)NC2CCCCC2)c(=O)n(C)c1=O,4.22
6,COc1ccc(C2NCc3ccc4c(c3-n3cccc32)OCO4)cc1O.Cl (stereo not shown),4.14
7,COc1ccc(Br)cc1-c1nc2c(c(=O)[nH]c(=O)n2Cc2ccccc2)n1C,5.02
8,Cc1ccc(OCCN2CCN(C)CC2)c([N+](=O)[O-])c1.O=C(O)C(=O)O,8.56
9,c1ccc2sc(NC3=NCN(CCN4CCOCC4)CN3)nc2c1,9.82
10,Cn1c(CNC(=O)c2ccccc2F)nnc1SCc1ccc(F)cc1,2.95
11,CC(=O)c1nn(-c2cccc(Br)c2)cc1C(=O)c1ccccc1,22
12,CCN(CC(=O)NC1CCS(=O)(=O)C1)c1ccc([N+](=O)[O-])cc1C#N (stereo not shown),0.543
13,Cc1nnc2n(c1=O)N=C(c1ccc(Cl)cc1)CS2,12.3
14,CSc1nc2ccccc2n1CC(=O)Nc1ccc(C)c(C)c1,18.9
15,CC[C@@H]1[C@H]2CCCC(=O)N3CC[C@@H](C[C@H]1O)[C@@H]23,8.77
16,Cc1ccc2nc(NCCO)nc(-c3ccccc3)c2c1,1.36
17,O=C(Nc1ccc2c(c1)C(=O)NC2=O)c1ccccc1Cl,6.33
18,O=C(Nc1ccc([N+](=O)[O-])cc1)Nn1cnnc1,9.51
19,COc1nccnc1NS(=O)(=O)c1ccc(NCc2ccccc2O)cc1,14.3
20,C[C@@]12C(=O)N(CCO)CC(=O)N1[C@H](/C=C/c1ccccc1)[C@@H]1C(=O)N(c3ccccc3)C(=O)[C@@H]12,1.88
21,O=C(Nc1ccc(N2CCOCC2)cc1)c1cc2c(s1)CCCCC2,10
22,C/C(=N\Nc1ccc([N+](=O)[O-])cc1[N+](=O)[O-])C(C)C(C)C (stereo not shown),-3.16

row,Structure (SMILES),"hERG current change (%, negative = inhibition) at 1uM [%]"
1,Cc1cccc(CN2CCN(Cc3cnn(-c4ccccc4F)c3)CC2CCO)n1 (stereo not shown),2.62
2,Cc1ccnc2nc(C(=O)Nc3ccc(S(=O)(=O)N4CCCC4)cc3)nn12,9.87
3,Cc1noc(C)c1S(=O)(=O)Nc1ccc(C(=O)NC2CCCCCC2)cc1,18.2
4,Cc1c(C#N)c(O)[nH]c(=O)c1N=Nc1ccc(Cl)c(C(=O)O)c1,9.09
5,CCCCn1c(N)c(N(CC(C)C)C(=O)c2ccncc2)c(=O)[nH]c1=O,21.1
6,O=C(c1ccc(Cl)s1)N1CCN(c2nc3ccccc3s2)CC1,-8.14
7,Cn1c(-c2cccc(OCc3ccccc3)c2)nc2c1c(=O)[nH]c(=O)n2Cc1ccccc1,8.31
8,N#CCC(=O)Nc1ccc(C(=O)NCC2(N3CCOCC3)CCCCC2)cc1,10.9
9,O=S(=O)(c1ccc(N2CCCC2c2nc3ccccc3s2)nc1)N1CCOCC1 (stereo not shown),12.7
10,CCOCCCNC(=O)c1ccc(OC)c(OC2CCN(C(C)C)CC2)c1,13.2
11,O=c1[nH]c2ccc(NC(=S)NCc3ccccc3)cc2[nH]1,8.48
12,CC(=O)Nc1nc(C)c(C(C)=O)s1,12.4
13,CCCOC(=O)c1sc2nc3c(cc2c1N)C(=O)CCC3,12
14,CN1C(=O)N(C)C2(C)CC1(C)N(C)C(=O)N2C,24.7
15,Cc1cc(NC(=O)COC(=O)c2c(C)nn(Cc3ccccc3Cl)c2C)no1,8.53
16,COCc1ccc(CN2CCC(n3nccc3NC(=O)CCCc3ccccc3)CC2)o1,63
17,CCc1ccc(NC(=O)C(C)OC(=O)c2ccc(-n3cnnn3)cc2)cc1 (stereo not shown),-1.61
18,COc1ccc(CN=CC2=C(O)CNC2=O)cc1,8.98
19,C/C(=N\NC(=S)NCc1ccccc1)c1ccc(C)o1,-1.19
20,COc1ccc(NC(=O)C2CC(=O)NC(Nc3cccc(C)c3)=N2)cc1 (stereo not shown),11.6
21,Cl.NC(=NCc1ccccc1)c1cccc([N+](=O)[O-])c1,-1.93
22,COc1cccc(-c2ccc(C#N)c(OC(=O)c3ccc(Cl)cc3)n2)c1,3.1

row,Structure (SMILES),"hERG current change (%, negative = inhibition) at 1uM [%]"
1,Cc1ccc2c(c1)N(C(=O)CCC(=O)N1CCC(C(N)=O)CC1)CC(C)O2 (stereo not shown),6.45
2,O=C1C=C(NCc2ccncc2)CC(c2ccccc2)C1 (stereo not shown),-22.8
3,COc1ccc(NC(=O)Nc2cccc3ccccc23)c(OC)c1,11.3
4,CCOC(=O)C1=C(COC(=O)CCOc2cccc(C)c2)NC(=O)NC1C (stereo not shown),7.56
5,O=S(=O)(O)CCN1CCOCC1,9.27
6,O=C(Nc1ccccc1)c1ccccc1CSc1ccccc1,2.86
7,COc1ccccc1NC(=O)CN(C)S(=O)(=O)c1cccc2cccnc12,14.1
8,N=c1c2c(-c3ccccc3)c(-c3ccccc3)n(Cc3ccco3)c2ncn1CCN1CCOCC1,-72.3
9,Cc1ccc(-c2cn(-c3ccccc3)c(SCC(=O)NC3CCS(=O)(=O)C3)n2)cc1C (stereo not shown),8.68
10,CN(CC(=O)Nc1ccccc1Cl)C(=O)COC(=O)Cc1c(F)cccc1Cl,8.28
11,CC(CN1CCC(n2nccc2NC(=O)c2ccccc2Cl)CC1)c1ccccc1 (stereo not shown),-43.6
12,CN(Cc1cc2ccccc2[nH]c1=O)C(=O)COc1ccccc1,-0.0687
13,O=C1CSC(c2nn(-c3ccccc3)cc2-c2cc3ccccc3oc2=O)N1Cc1ccco1 (stereo not shown),8.17
14,COc1ccc(C=NCC2COc3ccccc3O2)cc1OC.Cl (stereo not shown),4.99
15,CCc1ccccc1NC(=O)c1ccc(NCCc2ccccc2)c([N+](=O)[O-])c1,4.62
16,CCCOC(=O)C1C2c3ccccc3C(c3ccccc32)C1C(=O)O (stereo not shown),15.4
17,C#CC(C)(C)NC(=O)c1cnc(-c2ccccc2)nc1-c1ccccc1,13.1
18,O=c1c(C=NCCN2CCNCC2)c(-c2ccccc2)[nH]n1-c1ccc([N+](=O)[O-])cc1,-31
19,Cc1ccc(S(=O)(=O)NC2=C(N3CCN(Cc4ccccc4)CC3)C(=O)c3ccccc3C2=O)cc1,7.91
20,Cc1nc(C)c(CCNC(=O)c2ccc(C(F)(F)F)cc2)s1,-2.89
21,Cc1ccc(C2Nc3ccccc3NC3=C2C(=O)OC(C)C3)cc1 (stereo not shown),8.51
22,CC(C)C[C@H](NC(=O)[C@@H](Cc1ccccc1)n1c(=O)[nH]c2ccccc2c1=O)C(=O)N[C@@H](Cc1ccccc1)C(=O)O,-0.933
